{"source": "the supplement of paper PMC11348887", "note": "Structures can show the parent of a compound that is named as a salt. The list shows a part of the results. Cut-off read from the data, not from the text of the source: active = -2 or less and inactive = the rest. Repeats are few or missing, and single values can be far off.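 Note: nuclei counted from DAPI counterstain by automated high-content image analysis, four fields per well at ×20 in 384-well plates, with sequential b-score then z-score normalization.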"}
{"system": "hPSC-derived cortical neurons (WA09)", "experiment": "nuclei number (viability) z-score; higher = more surviving cells", "details": "5 µM; treatment: days 7-14 after plating, readout day 21"}
{"smiles": "CNCC[C@@H](Oc1ccccc1C)c1ccccc1", "note": "[Atomoxetine HCl]", "nuclei number (z-score)": "inactive: -0.907"}
{"smiles": "Cc1ccc(C(=O)C(C)CN2CCCCC2)cc1", "note": "(configuration not stated) [Tolperisone HCl]", "nuclei number (z-score)": "inactive: 1.44"}
{"smiles": "CCCCC1C(=O)N(c2ccccc2)N(c2ccccc2)C1=O", "note": "[Phenylbutazone]", "nuclei number (z-score)": "inactive: -1.98"}
{"smiles": "Nc1ncnc2c1nc(Br)n2[C@@H]1O[C@@H]2COP(=O)(O)O[C@H]2[C@H]1O", "note": "[8-Bromo-cAMP]", "nuclei number (z-score)": "inactive: 0.281"}
{"smiles": "COc1cc2ncnc(Nc3ccc(F)c(Cl)c3)c2cc1NC(=O)/C=C/CN1CCCCC1", "nuclei number (z-score)": "inactive: 0.743"}
{"smiles": "Cc1ccc(C(=O)N(CCCN)[C@@H](c2nc3cc(Cl)ccc3c(=O)n2Cc2ccccc2)C(C)C)cc1", "nuclei number (z-score)": "active: -3.03"}
{"smiles": "CC1=CC(=O)c2ccccc2C1=O", "note": "[Menadione]", "nuclei number (z-score)": "inactive: 0.222"}
{"smiles": "CC(=O)/N=c1/sc(S(N)(=O)=O)nn1C", "note": "[Methazolamide]", "nuclei number (z-score)": "inactive: 0.545"}
{"smiles": "CCCc1nc2c(C)cc(-c3nc4ccccc4n3C)cc2n1Cc1ccc(-c2ccccc2C(=O)O)cc1", "note": "[Telmisartan]", "nuclei number (z-score)": "inactive: -0.276"}
{"smiles": "COCCCOc1cc(C[C@@H](C[C@H](N)[C@@H](O)C[C@H](C(=O)NCC(C)(C)C(N)=O)C(C)C)C(C)C)ccc1OC", "note": "[Aliskiren Hemifumarate]", "nuclei number (z-score)": "inactive: 1.32"}
{"smiles": "CCCCOC(=O)c1ccc(O)cc1", "note": "[Butylparaben]", "nuclei number (z-score)": "inactive: 0.585"}
{"smiles": "CN1[C@@H]2CC[C@H]1C[C@@H](OC(c1ccccc1)c1ccccc1)C2", "note": "[Benztropine mesylate]", "nuclei number (z-score)": "inactive: -0.216"}
{"smiles": "CO/N=C(\\C(=O)N[C@@H]1C(=O)N2C(C(=O)O)=C(CSC(=O)c3ccco3)CS[C@H]12)c1csc(N)n1", "note": "[Ceftiofur HCl]", "nuclei number (z-score)": "inactive: 2.97"}
{"smiles": "Cc1nn(C)c(COc2ccc(N3CCN(S(=O)(=O)N(C)C)CC3)cc2)c1-c1cccc2c(CCCOc3cccc4ccccc34)c(C(=O)O)n(CCN3CCOCC3)c12", "nuclei number (z-score)": "inactive: 0.136"}
{"smiles": "CCCC(=O)Nc1ccc(OCC(O)CNC(C)C)c(C(C)=O)c1", "note": "(configuration not stated) [Acebutolol HCl]", "nuclei number (z-score)": "inactive: -1.16"}
{"smiles": "COc1ccnc2[nH]cc(C(=O)C(=O)N3CCN(C(=O)c4ccccc4)C[C@H]3C)c12", "nuclei number (z-score)": "inactive: 2.32"}
{"smiles": "C[C@@H]1O[C@@H](OC[C@H]2O[C@@H](Oc3c(-c4ccc(O)c(O)c4)oc4cc(O)cc(O)c4c3=O)[C@H](O)[C@@H](O)[C@@H]2O)[C@H](O)[C@H](O)[C@H]1O", "note": "[Rutin]", "nuclei number (z-score)": "inactive: -0.0429"}
{"smiles": "NC(=O)Nc1sc(-c2ccc(F)cc2)cc1C(N)=O", "nuclei number (z-score)": "inactive: -1.1"}
{"smiles": "CC(C)(C)OC(=O)N[C@H]1CCCCC/C=C\\[C@@H]2C[C@@]2(C(=O)NS(=O)(=O)C2CC2)NC(=O)[C@@H]2C[C@@H](OC(=O)N3Cc4cccc(F)c4C3)CN2C1=O", "note": "[Danoprevir (ITMN-191)]", "nuclei number (z-score)": "inactive: 0.194"}
{"smiles": "O=C(Nc1ccccc1)OCC(CN1CCCCC1)OC(=O)Nc1ccccc1", "note": "(configuration not stated) [Diperodon HCl]", "nuclei number (z-score)": "inactive: 2.82"}
{"smiles": "C[C@H](CCC(=O)O)[C@H]1CC[C@H]2[C@@H]3C[C@H](O)[C@@H]4C[C@H](O)CC[C@]4(C)[C@H]3CC[C@]12C", "note": "[Hyodeoxycholic acid (HDCA)]", "nuclei number (z-score)": "inactive: 0.0584"}
{"smiles": "N=C(N)c1ccc(N=NNc2ccc(C(=N)N)cc2)cc1", "note": "[Diminazene Aceturate]", "nuclei number (z-score)": "inactive: 11.4"}
{"smiles": "C[C@@H]1O[C@@H](O[C@H]2[C@H](Oc3cc(O)c4c(c3)O[C@H](c3ccc(O)cc3)CC4=O)O[C@H](CO)[C@@H](O)[C@@H]2O)[C@H](O)[C@H](O)[C@H]1O", "note": "[Naringin]", "nuclei number (z-score)": "inactive: 7.44"}
{"smiles": "Cn1cc(C2=C(c3cn(CCCSC(=N)N)c4ccccc34)C(=O)NC2=O)c2ccccc21", "note": "[Ro 31-8220 Mesylate]", "nuclei number (z-score)": "active: -8.88"}
{"smiles": "N[C@@H](CC(=O)N1CCn2c(nnc2C(F)(F)F)C1)Cc1cc(F)c(F)cc1F", "note": "[Sitagliptin phosphate monohydrate]", "nuclei number (z-score)": "inactive: 1.22"}
{"smiles": "Nc1nccc2c1ncn2C1C=C(CO)C(O)C1O", "note": "(configuration not stated) [3-Deazaneplanocin A (DZNeP)]", "nuclei number (z-score)": "inactive: 1.92"}
{"smiles": "Cc1nc(N(C)C(=O)Cc2ccc(-c3ccccn3)cc2)sc1S(N)(=O)=O", "note": "[Pritelivir (BAY 57-1293)]", "nuclei number (z-score)": "inactive: 0.449"}
{"smiles": "Cn1cc(/C=C/C(=O)c2cccc(F)c2)cc1/C=C/C(=O)NO", "nuclei number (z-score)": "inactive: 0.028"}
{"smiles": "COc1nc(C)cnc1NS(=O)(=O)c1cccnc1-c1ccc(-c2nnco2)cc1", "note": "[Zibotentan (ZD4054)]", "nuclei number (z-score)": "inactive: -0.333"}
{"smiles": "C/C(O)=C(\\C#N)C(=O)Nc1ccc(C(F)(F)F)cc1", "note": "[Teriflunomide]", "nuclei number (z-score)": "inactive: -0.0389"}
{"smiles": "CO[C@H]1C[C@@H]2CC[C@@H](C)[C@@](O)(O2)C(=O)C(=O)N2CCCC[C@H]2C(=O)O[C@H]([C@H](C)C[C@@H]2CC[C@H](n3cnnn3)[C@H](OC)C2)CC(=O)[C@H](C)/C=C(\\C)[C@@H](O)[C@@H](OC)C(=O)[C@H](C)C[C@H](C)/C=C/C=C/C=C/1C", "note": "[Zotarolimus(ABT-578)]", "nuclei number (z-score)": "inactive: -0.497"}
{"smiles": "CCCC(=O)Nc1cccc(NC(=O)c2ccccc2Br)c1", "nuclei number (z-score)": "inactive: 0.0126"}
{"smiles": "O=C(c1ccc(Cl)cc1Cl)n1nnc2ccccc21", "nuclei number (z-score)": "inactive: 0.56"}
{"smiles": "COc1cc(-c2cc(-c3cccc(O)c3)cnc2N)cc(OC)c1OC", "nuclei number (z-score)": "inactive: 3.13"}
{"smiles": "O=C(O)c1ccc(O)c2ncccc12", "nuclei number (z-score)": "inactive: -1.45"}
{"smiles": "COc1cc2ncnc(Nc3ccc(O)c(Br)c3)c2cc1OC", "nuclei number (z-score)": "inactive: 2.51"}
{"smiles": "O=C(NC1CC1)c1cc(-c2cccs2)on1", "note": "[Isoxazole 9 (ISX-9)]", "nuclei number (z-score)": "inactive: 0.0752"}
{"smiles": "Oc1cc(O)cc(/C=C/c2ccc(O)c(O)c2)c1", "note": "[Piceatannol]", "nuclei number (z-score)": "inactive: 0.2"}
{"smiles": "Nc1nc(=O)[nH]cc1F", "note": "[Flucytosine]", "nuclei number (z-score)": "inactive: 1.2"}
{"smiles": "Nc1nnc(-c2cccc(Cl)c2Cl)c(N)n1", "note": "[Lamotrigine]", "nuclei number (z-score)": "inactive: 0.901"}
{"smiles": "Cc1cc(Nc2cc(CN3CCOCC3)c3nc(C)c(Cc4ccc(Cl)cc4F)n3n2)n[nH]1", "nuclei number (z-score)": "inactive: 1.15"}
{"smiles": "CCOC(=O)N[C@@H]1CC[C@@H]2[C@@H](C1)C[C@H]1C(=O)O[C@H](C)[C@H]1[C@H]2/C=C/c1ccc(-c2cccc(F)c2)cn1", "note": "[Vorapaxar]", "nuclei number (z-score)": "inactive: 0.595"}
